Reference: patent US20220339143A1, “TAK-925 FOR USE IN TREATING NARCOLEPSY” (Takeda Pharmaceutical Company Limited, priority 2019, published 2022)
The source gives many values for each of these; only a part stands here.

Test: Single dose PK in healthy subjects (Cohorts 1, 2, S1 and S2), plasma
Format: in vivo, human
Experimental: This study investigates (i) the safety and tolerability of Compound A (methyl (2R,3S)-3-((methylsulfonyl)amino)-2-(((cis-4-phenylcyclohexyl)oxy)methyl)piperidine-1-carboxylate) when a single dose given as a 9 hour continuous IV infusion is administered to healthy adults, healthy elderly subjects and patients with narcolepsy type 1 (NT1); (ii) the pharmacokinetics of Compound A when a single dose given as a 9 hour continuous IV infusion is administered to healthy adults, healthy elderly subjects and patients with narcolepsy type 1; and (iii) the pharmacodynamics (PD) effects of Compound A, primarily by evaluation of the sleep latency on MWT when a single dose given as a 9 hour continuous IV infusion is administered to patients with narcolepsy type 1.
Pharmacokinetics: Concentrations of Compound A in plasma, and CSF, and pharmacokinetics parameters.
On average, the time to reach the plateau appeared to be approximately 3 to 4 hours after the start of infusion. […] After switching off the IV infusion, Compound A plasma concentrations declined rapidly and in a biphasic manner with a mean terminal disposition phase t1/2z ranging approximately from 3.4 to 5.1 hours across all doses. […] Table 5 provides a summary of plasma concentrations of Compound A after a single IV infusion in healthy subjects. Table 6 provides a summary of pharmacokinetic parameters of Compound A after a single IV infusion in healthy subjects.

[1] = 180 mg single IV infusion, 1 hr After End of Infusion
[2] = 180 mg single IV infusion, 1.5 hr After End of Infusions
[3] = 180 mg single IV infusion, 2 hr After End of Infusions
[4] = 180 mg single IV infusion, 3 hr After End of Infusions
[5] = 180 mg single IV infusion, 4 hr After End of Infusions
[6] = 180 mg single IV infusion, 6 hr After End of Infusions
[7] = 180 mg single IV infusion, 10 hr After End of Infusions
[8] = 180 mg single IV infusion, 15 hr After End of Infusions
[9] = 180 mg, 0.17 hr After End of Infusion
[10] = 240 mg single IV infusion, 0.17 hr After End of Infusion
[11] = 240 mg single IV infusion, 0.33 hr After End of Infusion
[12] = 240 mg single IV infusion, 0.5 hr After End of Infusion
[13] = 240 mg single IV infusion, 0.75 hr After End of Infusion
[14] = 240 mg single IV infusion, 1 hr After End of Infusion
[15] = 240 mg single IV infusion, 1.5 hr After End of Infusions
[16] = 240 mg single IV infusion, 2 hr After End of Infusions
[17] = 240 mg single IV infusion, 3 hr After End of Infusions
[18] = 240 mg single IV infusion, 4 hr After End of Infusions
[19] = 240 mg single IV infusion, 6 hr After End of Infusions
[20] = 240 mg single IV infusion, 10 hr After End of Infusions
[21] = 240 mg single IV infusion, 15 hr After End of Infusions
[22] = 240 mg single IV infusion, Predose
[23] = 240 mg, 0.17 hr After End of Infusion

## COC(=O)N1CCC[C@H](NS(C)(=O)=O)[C@@H]1CO[C@H]1CC[C@@H](c2ccccc2)CC1 [Compound A, methyl (2R,3S)-3-((methylsulfonyl)amino)-2-(((cis-4-phenylcyclohexyl)oxy)methyl)piperidine-1-carboxylate]
[1]
  Plasma Concentration of Cmpd A, Mean: 105.7 ng/mL
  Plasma Concentration of Cmpd A, Median: 109.5 ng/mL
  Plasma Concentration of Cmpd A, Minimum: 89.8 ng/mL
  Plasma Concentration of Cmpd A, Q1: 90.60 ng/mL
  Plasma Concentration of Cmpd A, Q3: 115.0 ng/mL
[2]
  Plasma Concentration of Cmpd A, Maximum: 101 ng/mL
  Plasma Concentration of Cmpd A, Mean: 87.53 ng/mL
  Plasma Concentration of Cmpd A, Median: 89.55 ng/mL
  Plasma Concentration of Cmpd A, Minimum: 69.8 ng/mL
  Plasma Concentration of Cmpd A, Q1: 76.60 ng/mL
  Plasma Concentration of Cmpd A, Q3: 98.70 ng/mL
[3]
  Plasma Concentration of Cmpd A, Maximum: 82.2 ng/mL
  Plasma Concentration of Cmpd A, Mean: 61.40 ng/mL
  Plasma Concentration of Cmpd A, Median: 59.80 ng/mL
  Plasma Concentration of Cmpd A, Minimum: 41.2 ng/mL
  Plasma Concentration of Cmpd A, Q1: 53.10 ng/mL
  Plasma Concentration of Cmpd A, Q3: 72.30 ng/mL
[4]
  Plasma Concentration of Cmpd A, Maximum: 52.5 ng/mL
  Plasma Concentration of Cmpd A, Mean: 44.02 ng/mL
  Plasma Concentration of Cmpd A, Median: 45.90 ng/mL
  Plasma Concentration of Cmpd A, Minimum: 30.3 ng/mL
  Plasma Concentration of Cmpd A, Q1: 40.30 ng/mL
  Plasma Concentration of Cmpd A, Q3: 49.20 ng/mL
[5]
  Plasma Concentration of Cmpd A, Maximum: 44.3 ng/mL
  Plasma Concentration of Cmpd A, Mean: 32.82 ng/mL
  Plasma Concentration of Cmpd A, Median: 30.10 ng/mL
  Plasma Concentration of Cmpd A, Minimum: 22.2 ng/mL
  Plasma Concentration of Cmpd A, Q1: 28.20 ng/mL
  Plasma Concentration of Cmpd A, Q3: 42.00 ng/mL
[6]
  Plasma Concentration of Cmpd A, Maximum: 20.2 ng/mL
  Plasma Concentration of Cmpd A, Mean: 15.28 ng/mL
  Plasma Concentration of Cmpd A, Median: 15.05 ng/mL
  Plasma Concentration of Cmpd A, Minimum: 11.7 ng/mL
  Plasma Concentration of Cmpd A, Q1: 12.00 ng/mL
  Plasma Concentration of Cmpd A, Q3: 17.70 ng/mL
[7]
  Plasma Concentration of Cmpd A, Maximum: 13.8 ng/mL
  Plasma Concentration of Cmpd A, Mean: 7.692 ng/mL
  Plasma Concentration of Cmpd A, Median: 5.985 ng/mL
  Plasma Concentration of Cmpd A, Minimum: 3.97 ng/mL
  Plasma Concentration of Cmpd A, Q1: 4.910 ng/mL
  Plasma Concentration of Cmpd A, Q3: 11.50 ng/mL
[8]
  Plasma Concentration of Cmpd A, Maximum: 5.82 ng/mL
  Plasma Concentration of Cmpd A, Mean: 3.298 ng/mL
  Plasma Concentration of Cmpd A, Median: 2.665 ng/mL
  Plasma Concentration of Cmpd A, Minimum: 1.85 ng/mL
  Plasma Concentration of Cmpd A, Q1: 2.030 ng/mL
  Plasma Concentration of Cmpd A, Q3: 4.760 ng/mL
[9]
  Plasma concentration, Maximum: 224 ng/mL
  Plasma concentration, Mean: 195.0 ng/mL
  Plasma concentration, Median: 205.0 ng/mL
  Plasma concentration, Minimum: 154 ng/mL
  Plasma concentration, Q1: 159.0 ng/mL
  Plasma concentration, Q3: 223.0 ng/mL
180 mg, Predose
  Plasma concentration, Maximum: 0.00 ng/mL
  Plasma concentration, Mean: 0.000 ng/mL
  Plasma concentration, Median: 0.000 ng/mL
  Plasma concentration, Minimum: 0.00 ng/mL
  Plasma concentration, Q1: 0.000 ng/mL
  Plasma concentration, Q3: 0.000 ng/mL
[10]
  Plasma Concentration of Cmpd A, Maximum: 392 ng/mL
  Plasma Concentration of Cmpd A, Median: 329.5 ng/mL
  Plasma Concentration of Cmpd A, Q3: 360.0 ng/mL
[11]
  Plasma Concentration of Cmpd A, Maximum: 321 ng/mL
  Plasma Concentration of Cmpd A, Mean: 256.3 ng/mL
  Plasma Concentration of Cmpd A, Median: 249.0 ng/mL
  Plasma Concentration of Cmpd A, Minimum: 200 ng/mL
  Plasma Concentration of Cmpd A, Q1: 243.0 ng/mL
  Plasma Concentration of Cmpd A, Q3: 276.0 ng/mL
[12]
  Plasma Concentration of Cmpd A, Maximum: 252 ng/mL
  Plasma Concentration of Cmpd A, Mean: 220.3 ng/mL
  Plasma Concentration of Cmpd A, Median: 222.5 ng/mL
  Plasma Concentration of Cmpd A, Minimum: 182 ng/mL
  Plasma Concentration of Cmpd A, Q1: 215.0 ng/mL
  Plasma Concentration of Cmpd A, Q3: 228.0 ng/mL
[13]
  Plasma Concentration of Cmpd A, Maximum: 212 ng/mL
  Plasma Concentration of Cmpd A, Mean: 193.7 ng/mL
  Plasma Concentration of Cmpd A, Median: 200.5 ng/mL
  Plasma Concentration of Cmpd A, Minimum: 148 ng/mL
  Plasma Concentration of Cmpd A, Q1: 199.0 ng/mL
  Plasma Concentration of Cmpd A, Q3: 202.0 ng/mL
[14]
  Plasma Concentration of Cmpd A, Maximum: 203 ng/mL
  Plasma Concentration of Cmpd A, Mean: 172.3 ng/mL
  Plasma Concentration of Cmpd A, Median: 174.5 ng/mL
  Plasma Concentration of Cmpd A, Minimum: 127 ng/mL
  Plasma Concentration of Cmpd A, Q1: 168.0 ng/mL
  Plasma Concentration of Cmpd A, Q3: 187.0 ng/mL
[15]
  Plasma Concentration of Cmpd A, Maximum: 159 ng/mL
  Plasma Concentration of Cmpd A, Mean: 144.7 ng/mL
  Plasma Concentration of Cmpd A, Median: 148.5 ng/mL
  Plasma Concentration of Cmpd A, Minimum: 113 ng/mL
  Plasma Concentration of Cmpd A, Q1: 145.0 ng/mL
  Plasma Concentration of Cmpd A, Q3: 154.0 ng/mL
[16]
  Plasma Concentration of Cmpd A, Maximum: 112 ng/mL
  Plasma Concentration of Cmpd A, Mean: 97.98 ng/mL
  Plasma Concentration of Cmpd A, Median: 100.5 ng/mL
  Plasma Concentration of Cmpd A, Minimum: 77.5 ng/mL
  Plasma Concentration of Cmpd A, Q1: 94.40 ng/mL
  Plasma Concentration of Cmpd A, Q3: 103.0 ng/mL
[17]
  Plasma Concentration of Cmpd A, Mean: 77.10 ng/mL
  Plasma Concentration of Cmpd A, Minimum: 64.7 ng/mL
  Plasma Concentration of Cmpd A, Q1: 68.80 ng/mL
[18]
  Plasma Concentration of Cmpd A, Mean: 55.97 ng/mL
  Plasma Concentration of Cmpd A, Minimum: 41.9 ng/mL
[19]
  Plasma Concentration of Cmpd A, Mean: 29.47 ng/mL
  Plasma Concentration of Cmpd A, Minimum: 21.8 ng/mL
[20]
  Plasma Concentration of Cmpd A, Mean: 14.42 ng/mL
  Plasma Concentration of Cmpd A, Minimum: 7.04 ng/mL
[21]
  Plasma Concentration of Cmpd A, Mean: 6.740 ng/mL
  Plasma Concentration of Cmpd A, Minimum: 3.23 ng/mL
[22]
  Plasma Concentration of Cmpd A, Maximum: 0.00 ng/mL
  Plasma Concentration of Cmpd A, Median: 0.000 ng/mL
  Plasma Concentration of Cmpd A, Q3: 0.000 ng/mL
[23]
  Plasma concentration, Mean: 328.2 ng/mL
  Plasma concentration, Minimum: 277 ng/mL
  Plasma concentration, Q1: 281.0 ng/mL
240 mg, Predose
  Plasma concentration, Mean: 0.000 ng/mL
  Plasma concentration, Minimum: 0.00 ng/mL
  Plasma concentration, Q1: 0.000 ng/mL
